# Reference: PubChem BioAssay AID1347165 (National Center for Advancing Translational Sciences (NCATS), 2019)
# About 5,700 (2.6%) of roughly 220,000 compounds were called active. The shares of active, inactive and inconclusive entries below differ from those in the screen. The call rests on the fitted dose curve; in most records, active means well fitted inhibition curve with a large enough effect; inconclusive means small, poorly fitted or top-dose-only effect; inactive means no such curve, though single readings can be large or run the other way. Potencies beside an inconclusive call are fits to weak or partial responses and may not hold up.
# Target: Lysine-specific demethylase 5B (Homo sapiens) (UniProt Q9UGL1)
# Experiment: Primary screen for KDM5B Histone Demethylases FDH-coupled qHTS; further: nearly all actives have a fitted effect of over 70% in size; on activity change, negative = inhibition: 0% is about no effect
# Conditions: FDH-coupled NADH fluorescence (FDH is formaldehyde dehydrogenase); activity change, negative = inhibition: at 57.7 µM (top of the series) unless noted
# Procedure, shortened: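 KDM5BΔAP (200 nM final) in 50 mM HEPES pH 7.5, 0.01% Tween-20 was preincubated 10 min at RT with compound over a concentration range. Substrate mix (H3K4me3 12.5 µM, α-KG 25 µM, Fe²⁺, ascorbate, NAD⁺, FDH) was added, and NADH fluorescence change over 30 min gave dose-response curves.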
# Potency means the concentration at half of the fitted maximal effect; tags describe the fitted curve by direction and shape.
# Sequence of UniProt Q9UGL1 (Q9UGL1 whole entry, looked up): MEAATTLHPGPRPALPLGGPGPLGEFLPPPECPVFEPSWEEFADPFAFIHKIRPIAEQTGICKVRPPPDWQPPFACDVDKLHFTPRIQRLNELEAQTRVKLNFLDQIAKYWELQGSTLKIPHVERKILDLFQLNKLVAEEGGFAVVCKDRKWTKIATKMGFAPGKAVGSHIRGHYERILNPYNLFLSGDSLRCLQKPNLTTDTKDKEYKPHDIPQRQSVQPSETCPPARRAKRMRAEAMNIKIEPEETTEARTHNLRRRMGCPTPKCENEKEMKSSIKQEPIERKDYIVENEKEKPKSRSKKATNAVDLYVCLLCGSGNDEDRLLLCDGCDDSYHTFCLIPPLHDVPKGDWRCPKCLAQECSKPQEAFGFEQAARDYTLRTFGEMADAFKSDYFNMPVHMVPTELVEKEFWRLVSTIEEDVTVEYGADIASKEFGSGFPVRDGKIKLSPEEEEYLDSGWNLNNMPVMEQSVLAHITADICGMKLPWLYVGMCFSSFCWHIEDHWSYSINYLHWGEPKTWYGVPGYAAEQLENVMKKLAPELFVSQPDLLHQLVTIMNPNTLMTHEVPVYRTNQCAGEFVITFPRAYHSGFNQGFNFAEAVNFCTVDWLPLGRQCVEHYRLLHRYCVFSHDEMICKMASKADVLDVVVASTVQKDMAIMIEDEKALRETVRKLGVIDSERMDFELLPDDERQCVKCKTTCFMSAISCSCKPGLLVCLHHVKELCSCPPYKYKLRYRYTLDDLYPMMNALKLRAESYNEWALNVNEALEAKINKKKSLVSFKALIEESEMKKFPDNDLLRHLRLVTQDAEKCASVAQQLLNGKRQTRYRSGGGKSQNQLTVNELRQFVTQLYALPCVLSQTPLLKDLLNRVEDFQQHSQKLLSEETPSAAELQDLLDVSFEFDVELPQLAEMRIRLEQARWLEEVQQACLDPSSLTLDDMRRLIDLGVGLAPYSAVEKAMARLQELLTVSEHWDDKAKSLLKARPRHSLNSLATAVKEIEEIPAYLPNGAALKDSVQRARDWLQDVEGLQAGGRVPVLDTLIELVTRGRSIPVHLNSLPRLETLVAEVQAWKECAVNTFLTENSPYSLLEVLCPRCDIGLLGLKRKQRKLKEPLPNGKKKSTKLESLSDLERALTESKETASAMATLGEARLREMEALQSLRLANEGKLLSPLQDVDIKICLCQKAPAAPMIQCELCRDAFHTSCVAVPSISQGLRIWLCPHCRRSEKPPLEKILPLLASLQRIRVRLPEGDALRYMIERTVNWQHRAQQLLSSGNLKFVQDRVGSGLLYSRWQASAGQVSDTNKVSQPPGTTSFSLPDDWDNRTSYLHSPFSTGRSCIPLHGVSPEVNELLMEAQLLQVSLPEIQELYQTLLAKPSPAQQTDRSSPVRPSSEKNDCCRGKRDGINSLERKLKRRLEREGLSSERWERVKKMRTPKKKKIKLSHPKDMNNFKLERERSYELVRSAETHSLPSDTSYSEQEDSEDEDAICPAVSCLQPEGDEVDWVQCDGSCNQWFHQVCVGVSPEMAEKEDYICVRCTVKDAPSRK
SMILES,Potency,"activity change, negative = inhibition"
O=C(NC1CCCCC1)N1CCCCC1c1nc(-c2cnccn2)n[nH]1 (stereo not given),"inconclusive: 22.4 µM [inhibitor, partial curve, poor fit]",
O=C(Cc1ccc2c(c1)OCCCO2)NC1CCCc2c1[nH]c1ccccc21 (stereo not given),"inconclusive: 10 µM [inhibitor, partial curve, poor fit]",
FC(F)(F)c1cc(Nc2cnc3ccc(N4CCOCC4)nn23)ccc1Cl,active: 31.6 µM,
CCC(C)NC(=O)c1cc(C(C)C)nc2c1cnn2C(C)C (stereo not given),"inconclusive: 12.6 µM [inhibitor, partial curve, poor fit]",
c1csc(-c2noc(CN3CCCC3c3ccsc3)n2)c1 (stereo not given),,inactive: -2.51%
CSS(=O)(=O)c1cccc2cccnc12,"inconclusive: 8.91 µM [inhibitor, full curve, poor fit]",
Cc1ccc2c(n1)N(C)[C@H](CO)CCN(CC1CCCCC1)C2,active: 35.5 µM,
COc1ccc(-c2coc3cc(OCc4ccccc4C)ccc3c2=O)cc1,,inactive: 3.35%
Cc1cccc(N/N=C/c2ccc(O)c(O)c2O)c1,"inconclusive: 10 µM [inhibitor, partial curve, poor fit]",
COCCn1c(=O)[nH]c(=O)c2c3c(cnc21)C(=O)CC(c1cccs1)C3 (stereo not given),"inconclusive: 28.2 µM [inhibitor, partial curve, poor fit]",
Cc1ccc(-n2c3c(cc(-c4nc(-c5ccc(Cl)cc5)cs4)c2=O)C(=O)CC(C)(C)C3)cc1C,,inconclusive: -32.9% [inhibitor]
C#CCSc1nc(-c2ccccc2)cc(-c2ccccc2)c1C#N,"inconclusive: 25.1 µM [inhibitor, partial curve, poor fit]",
O=C(C1CCC1)N1CCCC(Cc2nc(C3CCOCC3)no2)C1 (stereo not given),active: 35.5 µM,
O=C(c1ccncc1)N1CCCC1c1nnc2n1CCNC2 (stereo not given),"inconclusive: 44.7 µM [inhibitor, partial curve, poor fit]",
COc1ccc(-c2noc(-c3ncn4c3COC(c3ccc(F)cc3)C4)n2)cc1OC (stereo not given),"inconclusive: 17.8 µM [inhibitor, partial curve]",
CC(C)C/C=N/NC(=O)c1ccccc1,,inactive: 17.5%
CN1CCCCCC(O)c2cc(C(=O)NCCCc3ccccc3)ccc21 (stereo not given),"inconclusive: 25.1 µM [inhibitor, partial curve, poor fit]",
COc1ccc(-c2cc(C(=O)NCC(C)C)c3c(C4CCCN4)noc3n2)cc1 (stereo not given),"inconclusive: 56.2 µM [inhibitor, partial curve, poor fit]",
COc1ccc(NC(=O)c2ccc3c(SCC(=O)O)c4c(nc3c2)CCCC4)c(OC)c1,"inconclusive: 28.2 µM [inhibitor, partial curve, poor fit]",
CCc1ccc(-c2nc3cc(NS(=O)(=O)c4ccccc4)ccc3o2)cc1,"inconclusive: 25.1 µM [inhibitor, partial curve, poor fit]",

SMILES,Potency,"activity change, negative = inhibition"
O=C(NCCCN1CCN(c2ccc(F)cc2)CC1)c1cnn(-c2ccc(F)cc2)c1-n1cccc1,"inconclusive: 6.31 µM [inhibitor, partial curve, poor fit]",
CCOC(=O)c1ccc(NC(=O)CCn2c(=O)c3cccn3c3cccnc32)cc1,"inconclusive: 44.7 µM [inhibitor, single point]",
Nc1nccnc1C(=O)NCc1ccc2c(c1)OCCO2,"inconclusive: 39.8 µM [inhibitor, single point]",
CCc1cccc(NS(=O)(=O)c2ccc(-n3cccn3)cc2)c1,"inconclusive: 14.1 µM [inhibitor, partial curve, poor fit]",
O=C(NC1CCN(c2cc(-c3ccc(F)cc3)[nH]n2)C1)c1ccc(F)cc1Cl (stereo not given),"inconclusive: 14.1 µM [inhibitor, partial curve, poor fit]",
O=C(NCCc1ccccn1)C1CCN(c2ccc(C(F)(F)F)cn2)CC1,"inconclusive: 35.5 µM [inhibitor, single point]",
Cc1c(Cl)cccc1NC(=O)CCn1ccn2nc3c(c2c1=O)CCCC3,"inconclusive: 17.8 µM [inhibitor, partial curve]",
COc1ccc(-c2nc(CSCC(=O)N3CCc4ccccc43)co2)cc1,,inactive: 17.7%
CCCCS(=O)(=O)CC(O)CSc1nc(-c2ccc(C)cc2)cc(-c2ccccc2)c1C#N (stereo not given),"inconclusive: 17.8 µM [inhibitor, partial curve, poor fit]",
O=C(N[C@H](c1cccs1)C1CC(O)C1)c1cnn2cc(CCO)cnc12 (stereo not given in full),active: 14.1 µM,
COc1ccc(CN2CCN(S(=O)(=O)c3ccc(C)cc3)CC2)cc1OC,"inconclusive: 2.82 µM [inhibitor, full curve, poor fit]",
CC(C)N1CCN(C2CCN(c3ccc4c(c3)OCO4)CC2)CC1CCO (stereo not given),"inconclusive: 22.4 µM [inhibitor, single point]",
Cc1ccc(NC(=O)c2ccc(N3CC4CC(C3)[C@H]3CCCC(=O)N3C4)nc2)c(C)c1 (stereo not given in full),,inactive: 6.58%
CCOc1cc2nc(-c3ccc(OC)c(OC)c3)nc(N3CCCC(C)C3)c2cc1OC (stereo not given),"inconclusive: 28.2 µM [inhibitor, partial curve, poor fit]",
CC(=O)Oc1c(-c2ccc(NC(=O)c3ccccc3)cc2)c(-c2cccc(F)c2)nn1-c1ccccc1,"inconclusive: 39.8 µM [inhibitor, single point]",
CCCN(Cc1cc(OC)c(OC)c(OC)c1)Cc1cc(=O)n2cc(C)sc2n1,"inconclusive: 25.1 µM [inhibitor, partial curve, poor fit]",
CCOC(=O)N1CCN(Cc2nc3cc(NC(=O)C(C)C)ccc3n2C(C)C)CC1,,inactive: -6.44%
CCOc1cc(Cl)c(/C=C/C(=O)O)cc1OC,"inconclusive: 39.8 µM [inhibitor, single point]",
CCCNC(=O)c1ccc(-c2nc(CS(=O)(=O)c3ccc(C)cc3)c(C)o2)cc1,"inconclusive: 2 µM [inhibitor, partial curve, poor fit]",
Cc1ccc(CNC(=O)N2CCCC(CN3CCCC3)CC2)cc1 (stereo not given),"inconclusive: 20 µM [inhibitor, partial curve]",
